Assay results: PubChem BioAssay (NCI)
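Growth conditions: 96-well plates. Treatment: test compound, 48 hours, 5 concentrations. Analysis: linear interpolation between bracketing concentrations; unreached endpoints set to highest concentration. The concentration for 50% growth inhibition is given as GI50. TGI: total growth inhibition.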

System: NCI-H322M lung
Assay: NCI-60 cell line screen, 48 h

Q: What does the source list for `CC1(c2ccccc2)NC(=O)N(CC(=O)Nc2ccc(C(=O)/C=C/c3ccc(Cl)cc3)cc2)C1=O` (configuration not stated)?
A: GI50: 17.4 µM; TGI: 51.9 µM
